Test results: PubChem BioAssay (NCATS)
The shares of active, inactive and inconclusive entries below differ from those in the screen. For some of these results: Potencies of inconclusive entries are left out as doubtful fits. Some structures have more than one record in an assay (separate samples or runs), and their calls can disagree. The source made the active and inactive calls. Calls follow the shape of the dose curve; as a rule, active = well fitted curve in the direction sought with a large enough effect; inconclusive = small, poorly fitted or top-dose-only effect, or another doubt; inactive = no such curve, though single readings can be large; an effect the other way counts as inactive or inconclusive.

What was measured:
[1] = qHTS of pediatric cancer cell lines to identify multiple opportunities for drug repurposing: Confirmatory screen for SK-N-SH cells (AID 1347129);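 also: cells exposed to compound for 48 h before viability read; nearly all actives have a fitted effect of over 60% in size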; also: potency is read from the fitted curve at half-maximal effect
Outline: (§1)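 Cells (500-1,000/well) rested 5 h, then received compounds for 48 h; metabolically active cells were measured by CellTiter-Glo luminescence. Final concentrations spanned up to 46 µM (MIPE, 11-point) or 0.59 nM-46 µM (NPC, 8-point) in primary screens, 11-point in follow-ups.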

[2] = tested on: Zika virus NS2B-NS3 protease; assay: Primary screen GU AMC qHTS for Zika virus inhibitors (AID 1347154); also: nearly all actives have a fitted effect of over 70% in size; also: potency is read from the fitted curve at half-maximal effect
Outline: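 Fluorogenic AMC-substrate cleavage by noncovalent NS2B-NS3 protease complex (25 nM, pH 8.0 Tris buffer with Tween 20) followed for 15 minutes at room temperature (~20% conversion). Percent inhibition from ex340/em450 signal change, fitted by 4-parameter Hill equation.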

[3] = qHTS of pediatric cancer cell lines to identify multiple opportunities for drug repurposing: Confirmatory screen for OHS-50 cells (AID 1347128); conditions: OHS-50 osteosarcoma cells viability; series mostly up to 45.9 µM;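 also: compound exposure lasted 48 h at 37 degrees C; nearly all actives have a fitted effect of over 55% in size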; also: potency is read from the fitted curve at half-maximal effect
Outline: as §1

[4] = tested on: Zika virus NS2B-NS3 protease (linked construct); assay: Confirmatory screen NINDS AMC qHTS for Zika virus inhibitors (AID 1347152); also: potency is read from the fitted curve at half-maximal effect; nearly all actives have a fitted effect of over 70% in size
Outline: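 Purified NS2B-NS3 protease with NS2B hydrophilic domain linked to NS3 protease domain by flexible linker, 1 nM final in 10 mM Tris-HCl pH 8.0, 0.01% Tween 20. Compounds preincubated 15 min, room temperature; Bz-Nle-KRR-AMC 10 microM (Km 18.3 µM); 15-min fluorescence change, 4-parameter Hill fit.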

[5] = tested on: Zika virus NS2B-NS3 protease (unlinked complex); assay: Confirmatory screen GU AMC qHTS for Zika virus inhibitors (AID 1347153); also: nearly all actives have a fitted effect of over 70% in size;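 as to Potency: enzyme at 25 nM with substrate at 10 µM below its Km of 18.3 µM; potency is read from the fitted curve at half-maximal effect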
Outline: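 Compounds were preincubated 15 min at room temperature with 25 nM noncovalent NS2B-NS3 protease at pH 8.0; AMC substrate added at 10 microM and 15-min fluorescence gain (340/450 nm) converted to percent inhibition, fitted 4-parameter.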

Furin (Homo sapiens) = Furin (Homo sapiens) (UniProt P09958); assay: Furin counterscreen qHTS for Zika virus inhibitors (AID 1347149);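 also: purified recombinant full-length human furin enzyme at 5 nM; fluorescence gain from furin cutting a BOC-RVRR-AMC peptide substrate over 15 min; top concentration of the series differs between compounds; nearly all actives have a fitted effect of over 70% in size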
Outline: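 Fluorogenic cleavage of BOC-RVRR-AMC (2 microM final, Km ~15 µM) was monitored (ex 340, em 450 nm) at 37C after 15 min RT preincubation of 5 nM furin with compounds in HEPES pH 7.0 buffer with CaCl2 and Triton X-100. Percent inhibition was fitted to a 4-parameter Hill curve.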

[6] = molecular target: N-terminal Xaa-Pro-Lys N-methyltransferase 1 (Homo sapiens) (UniProt Q9BV86); assay: qHTS Assay for Inhibitors of N-terminal methyltransferase 1 (NTMT1): LOPAC validation of the NTMT1 SAHH-coupled ThioGlo3 Assay (AID 1347143)
Outline: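 Inhibition of NTMT1 methylation of peptide SPKRIA is followed by converting SAH with SAHH and labelling the released thiol with ThioGlo3. Plates are read at 340/450nm before and 30 min after reagent addition, both at room temperature.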

[7] = ZIKV-mCherry secondary qHTS for Zika virus inhibitors (AID 1347158); also: potency is read from the fitted curve at half-maximal effect
Outline: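 After overnight seeding at 37 °C, Vero cells receive compound and then ZIKV-mCherry (MOI 1). Following 48-72 h infection, cells are fixed, counterstained with Hoechst, and imaged; percent infected cells is derived from an mCherry intensity cut-off of 450 RFU.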
Tags tell the direction and shape of the fitted curve.

Chain of UniProt P09958 (P09958 whole entry, looked up): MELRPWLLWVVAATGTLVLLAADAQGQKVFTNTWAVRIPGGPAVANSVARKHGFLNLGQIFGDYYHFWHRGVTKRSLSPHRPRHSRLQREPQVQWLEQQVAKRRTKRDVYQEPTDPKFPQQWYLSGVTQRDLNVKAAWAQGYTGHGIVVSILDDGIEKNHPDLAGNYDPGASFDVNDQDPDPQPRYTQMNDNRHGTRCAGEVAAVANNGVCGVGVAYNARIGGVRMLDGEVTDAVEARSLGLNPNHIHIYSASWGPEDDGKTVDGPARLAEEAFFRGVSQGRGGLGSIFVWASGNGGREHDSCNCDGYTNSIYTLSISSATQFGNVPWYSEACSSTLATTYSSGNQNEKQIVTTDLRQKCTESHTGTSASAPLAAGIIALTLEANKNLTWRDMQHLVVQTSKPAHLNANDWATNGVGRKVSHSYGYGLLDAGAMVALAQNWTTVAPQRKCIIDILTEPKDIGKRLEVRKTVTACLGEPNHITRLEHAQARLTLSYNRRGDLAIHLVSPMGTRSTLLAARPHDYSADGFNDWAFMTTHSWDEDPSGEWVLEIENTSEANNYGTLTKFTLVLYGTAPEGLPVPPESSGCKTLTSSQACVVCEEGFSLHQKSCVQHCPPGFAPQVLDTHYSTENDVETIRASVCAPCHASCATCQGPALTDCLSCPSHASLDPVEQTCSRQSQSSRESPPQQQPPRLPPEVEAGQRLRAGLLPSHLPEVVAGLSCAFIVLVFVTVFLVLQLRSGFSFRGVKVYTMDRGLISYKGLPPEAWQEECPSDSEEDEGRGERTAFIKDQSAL
Chain of UniProt Q9BV86 (Q9BV86 whole entry, looked up): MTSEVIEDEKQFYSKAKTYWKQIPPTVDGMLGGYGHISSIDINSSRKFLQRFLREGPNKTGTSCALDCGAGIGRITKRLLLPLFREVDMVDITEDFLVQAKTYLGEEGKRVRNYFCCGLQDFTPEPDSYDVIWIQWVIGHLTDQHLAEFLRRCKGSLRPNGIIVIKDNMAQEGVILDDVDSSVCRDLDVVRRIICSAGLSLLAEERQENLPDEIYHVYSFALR

Q: With `CS(=O)(=O)c1ccc([C@@H](O)[C@@H](CO)NC(=O)C(Cl)Cl)cc1` as the molecule, how does the Potency [1] read?
A: inactive

Q: Which Potency [1] does the source give for `Nc1ccn([C@@H]2O[C@H](CO)[C@@H](O)C2O)c(=O)n1` (some centres not stated) here?
A: inactive

Q: Which Potency [1] does the source give for `CC(C)C[C@H](NC(=O)[C@H](Cc1ccccc1)NC(=O)c1cnccn1)B(O)O` here?
A: active: 0.0332 µM

Q: And the Potency [2]?
A: inactive

Q: Which Potency [3] does the source give for `CCN1CCN(Cc2ccc(-c3cc4c(N[C@H](C)c5ccccc5)ncnc4[nH]3)cc2)CC1` here?
A: active: 4.79 µM

Q: What about the Potency [4] of the same molecule?
A: active: 44.1 µM

Q: What about the Potency [5] of the same molecule?
A: active: 49.4 µM

Q: What about the Potency [2] of the same molecule?
A: active: 17.1 µM

Q: What does the source list for `CC(=O)N1CCN(c2ccc(OCc3nn(C)c(C)c3-c3cccc4c(CCCOc5cccc6ccccc56)c(C(=O)O)n(Cc5cccnc5)c34)cc2)CC1`?
A: Potency [3]: inactive; Potency [2]: inconclusive [inhibitor, full curve]

Q: Which results are given for `CCOC(=O)[C@H](CCc1ccccc1)N[C@@H](C)C(=O)N1CCCC1C(=O)O` (some centres not stated)?
A: Potency [3]: inconclusive [cytotoxic, full curve]; Potency (Furin (Homo sapiens)): inactive; Potency [5]: inactive; Potency [2]: inconclusive [inhibitor, full curve]

Q: What does the source list for `CN(Cc1cnc2nc(N)nc(N)c2n1)c1ccc(C(=O)N[C@@H](CCC(=O)O)C(=O)O)cc1`?
A: Potency [1]: inactive; Potency [6]: active: 79.4 µM; Potency [4]: inconclusive [inhibitor, partial curve, poor fit]; Potency [5]: inactive; Potency [2]: inconclusive [inhibitor, single point]

Q: For `COc1c(C)c2c(c(O)c1C/C=C(\C)CCC(=O)O)C(=O)OC2`, which Potency [3] is on record?
A: inconclusive [cytotoxic, full curve, poor fit]

Q: What about the Potency [2] of the same molecule?
A: inconclusive [inhibitor, single point]

Q: And the Potency [7]?
A: inconclusive [inhibitor, full curve]
